Measurements as given in article PMC9911399, “Two distinct binding modes provide the RNA-binding protein RbFox with extraordinary sequence specificity”.
Residue numbers refer to the chain shown, from its start. Some of the results follow.

T1: RBFOX1 RRM RbFoxmut (Fox-RRM*) (Homo sapiens, UniProt Q9NWB1 109-208, R118D;E147R;N151S;E152T)
T1 sequence: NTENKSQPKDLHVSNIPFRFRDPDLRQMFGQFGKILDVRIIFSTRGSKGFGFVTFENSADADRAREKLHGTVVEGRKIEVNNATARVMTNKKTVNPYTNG

B1: ACGCGCA (DNA:RNA)
RNA: GGGAGACCGGAAUUCAGAUUGUCCACGCGCAUUAAAUCCCGUCGUAGCCACCA
DNA 1: CAATCTGAATTCCGGTCTCCC
DNA 2: TGGTGGCTACGACGGGATT
B2: GAUAAUG (DNA:RNA)
RNA: GGGAGACCGGAAUUCAGAUUGUCCGAUAAUGUUAAAUCCCGUCGUAGCCACCA
DNA 1: CAATCTGAATTCCGGTCTCCC
DNA 2: TGGTGGCTACGACGGGATT
B3: GUCAUCG (DNA:RNA)
RNA: B2 RNA with A26U, U27C, A29U, U30C
DNA 1: CAATCTGAATTCCGGTCTCCC
DNA 2: TGGTGGCTACGACGGGATT
B4: UUGCGAA (DNA:RNA)
RNA: B1 RNA with A25U, C26U, C30A
DNA 1: CAATCTGAATTCCGGTCTCCC
DNA 2: TGGTGGCTACGACGGGATT
B5: GAGAGCG (DNA:RNA)
RNA: B2 RNA with U27G, A29G, U30C
DNA 1: CAATCTGAATTCCGGTCTCCC
DNA 2: TGGTGGCTACGACGGGATT
B6: UCGAAAC (DNA:RNA)
RNA: B1 RNA with A25U, C28A, G29A, C30A, A31C
DNA 1: CAATCTGAATTCCGGTCTCCC
DNA 2: TGGTGGCTACGACGGGATT
B7: AACGUCA (DNA:RNA)
RNA: B1 RNA with C26A, G27C, C28G, G29U
DNA 1: CAATCTGAATTCCGGTCTCCC
DNA 2: TGGTGGCTACGACGGGATT
B8: UUAGGGG (DNA:RNA)
RNA: B1 RNA with A25U, C26U, G27A, C28G, C30G, A31G
DNA 1: CAATCTGAATTCCGGTCTCCC
DNA 2: TGGTGGCTACGACGGGATT
B9: GGAUUAC (DNA:RNA)
RNA: B2 RNA with A26G, U27A, A28U, A29U, U30A, G31C
DNA 1: CAATCTGAATTCCGGTCTCCC
DNA 2: TGGTGGCTACGACGGGATT
B10: AGCUUGC (DNA:RNA)
RNA: B1 RNA with C26G, G27C, C28U, G29U, C30G, A31C
DNA 1: CAATCTGAATTCCGGTCTCCC
DNA 2: TGGTGGCTACGACGGGATT
B11: UGUUGUG (DNA:RNA)
RNA: B2 RNA with G25U, A26G, A28U, A29G
DNA 1: CAATCTGAATTCCGGTCTCCC
DNA 2: TGGTGGCTACGACGGGATT
B12: UCCCUGG (DNA:RNA)
RNA: B1 RNA with A25U, G27C, G29U, C30G, A31G
DNA 1: CAATCTGAATTCCGGTCTCCC
DNA 2: TGGTGGCTACGACGGGATT
B13: AUAAAUA (DNA:RNA)
RNA: B2 RNA with G25A, A26U, U27A, G31A
DNA 1: CAATCTGAATTCCGGTCTCCC
DNA 2: TGGTGGCTACGACGGGATT
B14: AUCGUCC (DNA:RNA)
RNA: B1 RNA with C26U, G27C, C28G, G29U, A31C
DNA 1: CAATCTGAATTCCGGTCTCCC
DNA 2: TGGTGGCTACGACGGGATT
B15: CACGUAU (DNA:RNA)
RNA: B2 RNA with G25C, U27C, A28G, A29U, U30A, G31U
DNA 1: CAATCTGAATTCCGGTCTCCC
DNA 2: TGGTGGCTACGACGGGATT
B16: UACCUCU (DNA:RNA)
RNA: B1 RNA with A25U, C26A, G27C, G29U, A31U
DNA 1: CAATCTGAATTCCGGTCTCCC
DNA 2: TGGTGGCTACGACGGGATT
B17: ACACGAC (DNA:RNA)
RNA: B1 RNA with G27A, C30A, A31C
DNA 1: CAATCTGAATTCCGGTCTCCC
DNA 2: TGGTGGCTACGACGGGATT
B18: GAGUCCG (DNA:RNA)
RNA: B2 RNA with U27G, A28U, A29C, U30C
DNA 1: CAATCTGAATTCCGGTCTCCC
DNA 2: TGGTGGCTACGACGGGATT
B19: GAGGCGU (DNA:RNA)
RNA: B2 RNA with U27G, A28G, A29C, U30G, G31U
DNA 1: CAATCTGAATTCCGGTCTCCC
DNA 2: TGGTGGCTACGACGGGATT
B20: GAAGAGA (DNA:RNA)
RNA: B2 RNA with U27A, A28G, U30G, G31A
DNA 1: CAATCTGAATTCCGGTCTCCC
DNA 2: TGGTGGCTACGACGGGATT

Each binder was assayed against T1, RBFOX1 RRM RbFoxmut (Fox-RRM*) (assay: EMSA; HiTS-Eq, 1 nM pool, 10 min; buffer printed only for the single-RNA assays: 10 mM Tris pH 7.5, 150 mM NaCl, 3.4 mM EDTA, 0.001% NP-40, 30 C). Conditions: tags: His6 N-terminal (pET28a); label: 5' 32P.
Outline: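 Relative association constants, normalised to the cognate motif, were derived by comparing read counts of each RNA species with those of the control reaction. The RNA sequenced was the free fraction, separated by 8% native PAGE after a 10 min equilibration in 50 µL of 1 nM 5′-radiolabelled RNA (7 randomized nucleotides) with increasing concentrations of purified wild-type or mutant RbFox RRM.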

Binder | binding signal
B1 | 0.15 KA relative to UGCAUGU
B2 | 0.0802 KA relative to UGCAUGU
B3 | 0.186 KA relative to UGCAUGU
B4 | 0.124 KA relative to UGCAUGU
B5 | 0.128 KA relative to UGCAUGU
B6 | 0.0798 KA relative to UGCAUGU
B7 | 0.0754 KA relative to UGCAUGU
B8 | 0.0458 KA relative to UGCAUGU
B9 | 0.0859 KA relative to UGCAUGU
B10 | 0.14 KA relative to UGCAUGU
B11 | 0.29 KA relative to UGCAUGU
B12 | 0.101 KA relative to UGCAUGU
B13 | 0.119 KA relative to UGCAUGU
B14 | 0.0736 KA relative to UGCAUGU
B15 | 0.108 KA relative to UGCAUGU
B16 | 0.0588 KA relative to UGCAUGU
B17 | 0.0842 KA relative to UGCAUGU
B18 | 0.117 KA relative to UGCAUGU
B19 | 0.123 KA relative to UGCAUGU
B20 | 0.0591 KA relative to UGCAUGU
